{"source": "ChEMBL document CHEMBL1201862", "about": "“PubChem BioAssay data set” (2004)", "note": "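Test compounds were applied to cells in 96-well plates for 48 hours at 5 doses. GI50 marks 50% less growth.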 Activity calls are given as the source filed them. Cut-off read from the data, not from the text of the source: active = GI50 up to about 1.1 µM and inactive = higher.", "data": [{"tested_on": "NCI-H322M", "assay": "inhibition of tumour cell growth, NCI panel, 48 h", "values": [{"compound": "Cc1cc(=O)oc2cc(O)c(CN(C)CC(=O)O)cc12", "GI50": "inactive: > 100 µM"}, {"compound": "Cc1ncn(-c2ccccc2O)c1C", "GI50": "inactive: > 100 µM"}, {"compound": "CC(C)Oc1cc(O)c2c(c1)OCC=C2CCC(=O)O", "GI50": "inactive: 22.3 µM"}, {"compound": "O=c1c2cc(Br)ccc2[nH]c(=S)n1-c1ccccc1", "GI50": "inactive: > 100 µM"}, {"compound": "O=C(CN1C(=O)c2ccccc2C1=O)NC1(C(=O)O)CCCC1", "GI50": "inactive: > 100 µM"}, {"compound": "NS(=O)(=O)c1ccc(NCc2cnc3ccccc3n2)cc1", "GI50": "inactive: > 100 µM"}, {"compound": "CCOC(=O)C(COS(C)(=O)=O)(COS(C)(=O)=O)C(=O)OCC", "GI50": "inactive: > 100 µM"}, {"compound": "CCOC(=O)C1(C#N)C2(C#N)C(N)=NC(ON=C(C)C)(ON=C(C)C)C12C#N", "note": "(centres undefined)", "GI50": "inactive: > 100 µM"}, {"compound": "COc1cc(C2c3cc4c(cc3OC(Nc3ccccc3)C2C)OCO4)cc(OC)c1OC", "note": "(centres undefined)", "GI50": "active: 0.305 µM"}, {"compound": "C=CCCCC(C#N)(c1ccccc1)N1CCCC1", "note": "(centres undefined)", "GI50": "inactive: > 100 µM"}, {"compound": "COc1cc2c(c(OC)c1OC)C(=O)[C@H](O)[C@H]2NC(N)=O", "GI50": "inactive: 75.3 µM"}, {"compound": "O=C(N/N=C\\c1cccs1)c1ccncc1", "GI50": "inactive: > 100 µM"}, {"compound": "COc1ccc2c(c1)OC1c3ccccc3OCC21", "note": "(centres undefined)", "GI50": "inactive: > 100 µM"}, {"compound": "CC1=C(C(=O)CC(=O)C(=O)Nc2ccccc2C(F)(F)F)Sc2ccccc2N1", "GI50": "inactive: 31.3 µM"}, {"compound": "O=C1N/C(=N/N=C\\C(O)C(O)C(O)C(O)CO)N/C1=C/c1ccc(Cl)cc1", "note": "(centres undefined)", "GI50": "inactive: > 100 µM"}, {"compound": "C#CCN(N=O)C(=O)NC(CCCNC(=O)OCc1ccccc1)C(=O)OCc1ccccc1", "note": "(centres undefined)", "GI50": "inactive: > 100 µM"}, {"compound": "O=c1n(-c2ccccc2)c(=O)n2n1C1CCC2CC1", "GI50": "inactive: > 100 µM"}, {"compound": "COc1ccc(-c2nnc(CCCCCCCCc3nnc(-c4ccc(OC)cc4)o3)o2)cc1", "GI50": "inactive: > 100 µM"}, {"compound": "COC(=O)C1(Cc2ccccc2)Cc2ccc3c(c2C1=O)CCC3", "note": "(centres undefined)", "GI50": "inactive: 41.6 µM"}, {"compound": "COc1ccc(NC(C)=O)cc1N1C(=O)/C(=C\\c2cccc(Oc3ccccc3)c2)SC1c1ccccc1", "note": "(centres undefined)", "GI50": "inactive: 99.8 µM"}, {"compound": "Cc1cccc(C(C)(C)C)c1NC(=O)/C(Cc1nc2ccc([N+](=O)[O-])cc2nc1O)=N\\NC(=O)C[N+](C)(C)C", "GI50": "inactive: > 100 µM"}, {"compound": "O=C(O)c1ccc(O)c(/N=N/c2cc(S(=O)(=O)O)c3ccccc3c2O)c1", "GI50": "inactive: > 100 µM"}, {"compound": "Clc1ccc2[nH]c(CC3CCCC3)nc2c1", "GI50": "inactive: 20 µM"}, {"compound": "O=C(Nc1cc(Cl)c(Cl)cc1Cl)C(=O)C(C(=O)c1ccc(Cl)c(Cl)c1)C1OC(=O)c2ccccc21", "note": "(centres undefined)", "GI50": "inactive: 19.2 µM"}, {"compound": "CCN(CC)C(=O)c1cc(OC(C)C)ccc1-c1c(C)cc(OC(C)C)c(OC)c1OC", "GI50": "inactive: > 100 µM"}, {"compound": "O=c1nc(NC2CCCCO2)ccn1CCO", "note": "(centres undefined)", "GI50": "inactive: > 100 µM"}, {"compound": "NC(Cc1ccccc1)C(=O)NC(Cc1ccccc1)NC(=O)C(Cc1c[nH]c2ccccc12)C(=O)O", "note": "(centres undefined)", "GI50": "inactive: > 100 µM"}, {"compound": "O=S1(=O)NN=C(NCc2ccc(F)cc2)c2ccccc21", "GI50": "inactive: > 100 µM"}, {"compound": "COc1cc(/C=C\\c2nnc(/C=C\\c3ccc(O)c(OC)c3)s2)ccc1O", "GI50": "inactive: 7.96 µM"}, {"compound": "CC1CC2C3CCC4=CC(=O)C=CC4(C)C3(F)C(O)CC2(C)C1(O)C(=O)CO.Cc1cc(NS(=O)(=O)c2ccc(/N=N\\c3cc(/N=N/c4ccc(S(=O)(=O)Nc5cc(C)nc(C)n5)cc4)c(OC(=O)C(Cl)Cl)c4cccc(NC(=O)C(Cl)Cl)c34)cc2)nc(C)n1", "GI50": "inactive: 20.4 µM"}, {"compound": "C=C1COC(O)(C2OCOC(C3CC(=O)NC(=O)C3)C2O)C1C", "note": "(centres undefined)", "GI50": "active: 0.00641 µM"}, {"compound": "CN(C)CCCSc1nc2c(c(=N)n1-c1ccccc1)c(=S)n(-c1ccccc1)c(=S)n2-c1ccccc1", "GI50": "inactive: 1.93 µM"}, {"compound": "CC1=C2c3ccccc3N(S(=O)(=O)c3ccccc3)[C@H]2[C@H](C(=O)N2C3CC4CC[C@@]3(CS2(=O)=O)C4(C)C)CC1", "note": "(some centres undefined)", "GI50": "inactive: 68.1 µM"}, {"compound": "CC(=O)OCC1=CC2OC(=O)C3=COC(OC4OC(CO)C(O)C(O)C4O)C1C32", "note": "(centres undefined)", "GI50": "inactive: > 100 µM"}, {"compound": "Cc1sc(NC=C2C(=O)CC(C)(C)CC2=O)nc1-c1ccccc1", "GI50": "inactive: > 100 µM"}, {"compound": "C=C1CC2(CC(c3ccccc3Cl)OC(c3ccccc3Cl)C2)OC1=O", "note": "(centres undefined)", "GI50": "inactive: 9.71 µM"}, {"compound": "C=CCCC1(CC(Sc2ccccc2)P(=O)(c2ccccc2)c2ccccc2)OCCO1", "note": "(centres undefined)", "GI50": "inactive: > 10 µM"}, {"compound": "CN(C)Cc1cc(C(=O)/C=C/c2ccc(/C=C/C(=O)c3cc(CN(C)C)c(O)c(CN(C)C)c3)cc2)cc(CN(C)C)c1O", "GI50": "inactive: 39.4 µM"}, {"compound": "CNC(=S)/C(=N\\Nc1[nH]cnc1C(N)=O)C(N)=S", "GI50": "inactive: 12.1 µM"}, {"compound": "OC1OC(c2ccc[nH]2)C(F)(F)C(F)(F)C1(F)F", "note": "(centres undefined)", "GI50": "inactive: > 100 µM"}, {"compound": "CCOc1nc(OCC)nc(-c2cccn2-c2ccccc2)n1", "GI50": "inactive: > 100 µM"}, {"compound": "Cc1ccc(CC[PH](=O)CCc2ccc(C)nc2)cn1", "GI50": "inactive: > 100 µM"}, {"compound": "COc1cc(Cl)cc(N(O)C(C)=O)c1OCc1ccccc1", "GI50": "inactive: 57.9 µM"}, {"compound": "CCOC(=O)C1=CNC2=N[C@H]3CCCC[C@@H]3N2C1=O", "GI50": "inactive: > 100 µM"}]}]}
